Z-score data for 107 molecules are collected here from PubChem BioAssay AID488969 (Vanderbilt High Throughput Screening Facility, 2010).

The full ranking holds about 110,000 compounds; the median of “z-score” is about -0.1, and the highest 2% start at about 2. The list shows a part of the results. Activity calls are given as the source filed them.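 Rule for the calls: active = z-score in the third read window above 3 or below -3; inactive = the rest.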

The experiment addresses Metabotropic glutamate receptor 8 (Rattus norvegicus) (UniProt P70579). Nature of the experiment: mGluR8 Gi/Go-coupled signaling modulation – cell-based, rat, thallium flux, HTS, primary screen (AID 488969). The note with it: HEK293 rat mGluR8, GIRK (G protein-gated inwardly rectifying potassium channel) thallium flux, FluoZin2; at 10 µM; stronger effect = higher value; submaximal glutamate (EC20) added with thallium.
UniProt P70579, sequence (P70579 whole entry, looked up): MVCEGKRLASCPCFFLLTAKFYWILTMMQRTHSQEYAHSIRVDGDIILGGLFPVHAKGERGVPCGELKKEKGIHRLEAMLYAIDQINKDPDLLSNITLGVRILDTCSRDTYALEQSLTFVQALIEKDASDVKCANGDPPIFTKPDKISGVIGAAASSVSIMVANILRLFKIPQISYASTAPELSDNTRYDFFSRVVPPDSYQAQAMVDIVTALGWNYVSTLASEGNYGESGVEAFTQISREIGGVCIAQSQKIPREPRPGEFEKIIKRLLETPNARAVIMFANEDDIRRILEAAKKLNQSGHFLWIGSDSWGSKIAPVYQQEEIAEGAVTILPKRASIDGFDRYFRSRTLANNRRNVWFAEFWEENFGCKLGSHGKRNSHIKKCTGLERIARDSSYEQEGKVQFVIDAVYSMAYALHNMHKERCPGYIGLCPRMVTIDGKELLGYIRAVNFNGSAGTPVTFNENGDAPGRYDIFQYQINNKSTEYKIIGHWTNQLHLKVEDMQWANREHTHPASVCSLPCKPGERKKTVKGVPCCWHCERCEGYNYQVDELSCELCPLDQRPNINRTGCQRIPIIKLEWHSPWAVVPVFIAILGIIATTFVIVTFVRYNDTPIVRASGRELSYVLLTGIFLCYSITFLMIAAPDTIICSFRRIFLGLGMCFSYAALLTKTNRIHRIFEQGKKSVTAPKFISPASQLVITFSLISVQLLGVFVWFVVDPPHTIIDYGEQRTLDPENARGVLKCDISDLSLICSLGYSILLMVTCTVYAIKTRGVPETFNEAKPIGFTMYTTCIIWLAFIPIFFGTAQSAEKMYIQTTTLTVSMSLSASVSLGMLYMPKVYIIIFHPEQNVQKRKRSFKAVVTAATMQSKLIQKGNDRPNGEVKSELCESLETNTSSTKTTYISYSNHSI
For `CC(C)(C)NC(=O)NC(=O)COC(=O)c1cccc(NS(=O)(=O)c2ccc(F)c(F)c2)c1`, the z-score is -0.352.
With `O=C(N/N=C\c1ccc([N+](=O)[O-])s1)c1cncc(Br)c1`, the z-score is -0.156.
Molecule `COc1ccc(OC)c(S(=O)(=O)NCC2CCCO2)c1` (configuration not stated) gave a z-score of 0.058.
With `O=C(CNC(=O)c1ccco1)NCCCc1ccccc1` the figure was -0.149.
Turning to `Cc1nc(N2CCN(C)CC2)c2c(C)c(C(=O)Nc3ccc(F)cc3)sc2n1`, the z-score was -0.367.
With `Cn1c(=O)c2c(nc(N/N=C/c3ccc(OC(=O)c4ccco4)cc3)n2Cc2ccccc2)n(C)c1=O`, the z-score came to 0.162.
With `CCOC(=O)CN1C(=O)S/C(=C/c2ccc(OC)c([N+](=O)[O-])c2)C1=O` the figure was 0.0987; with `CN1C(=S)NC(C)(C)CC1(C)c1ccc(O)cc1O` (configuration not stated), -0.144.
For the molecule `COc1ccc(C(=O)NCCc2nnc(SCc3nc4ccccc4c(=O)[nH]3)n2C)cc1`, the z-score was -0.361.
With `Cc1ccc(P(=O)(CSC(=N)N)c2ccc(C)cc2)cc1` the figure was 0.125; with `Oc1c(CN2CCc3ccccc3C2)cc(Cl)c2cccnc12`, 2.72; with `CC(=O)Nc1ccc(NC(=O)C(C)OC(=O)c2ccccc2Sc2ccccc2C#N)cc1` (configuration not stated), 0.414.
As to `C=CCn1c(NC(=O)CC)c(C(=O)OCC)sc1=S`, the z-score was -0.979.
Consider `CCOc1ccc(NS(=O)(=O)c2ccc(NC(=S)NC(=O)C(C)C)cc2)cc1`, for which the z-score is -0.0271.
Next, `Cc1nc2nc(-c3ccccc3)nn2c(C)c1Cl`: 0.197.
Next, `COc1ccc2c(c1OC)C(=O)OC2Nc1ncccc1C` (configuration not stated): -0.218; `Cn1c(CN2CCCC2)nc2cc(NC(=O)C3CCCCC3)ccc21`: -0.205.
`CCC(/C=N/Nc1ccc(S(=O)(=O)N2CCCC2)cc1[N+](=O)[O-])CC`: the z-score is -0.217.
`COc1ccc(C2C3=C(CCCC3=O)Nc3nc(SCc4ccccc4)nn32)cc1OC` (configuration not stated) returned a z-score of 0.474.
Next, `CC1Cc2ccccc2N1C(=O)COc1nc2ccccc2nc1N1CCOCC1` (configuration not stated): -0.126.
With `CN(C)c1ccc(NC(=O)COC(=O)CCC(=O)c2ccc(F)cc2)cc1` the figure was 0.474; with `Cc1nn2c(nc(N3CCOCC3)c3ccccc32)c1C=C(C#N)C#N`, -0.113; with `O=C(COc1ccccc1O)Nc1ccccc1Cl`, 0.702.
On to `NC(=O)CC(c1ccccc1)c1ccco1` (configuration not stated), for which the z-score is -0.579.
Turning to `CC(Sc1nc(NCc2ccccc2)nc(N2CCOCC2)n1)C(=O)Nc1ccccc1` (configuration not stated), the z-score is -1.09.
With `Cc1nn(-c2ccccn2)c2c1C(c1ccccc1Cl)C1=C(N2)c2ccccc2C1=O` (configuration not stated) the figure was -0.893; with `COc1ccc(-c2c3c(=O)n(C)c(=O)n(C)c3cn2Cc2cccnc2)cc1`, -0.122.
With `C/C(=N\NC(=O)CN(c1ccccc1)S(=O)(=O)c1ccccc1[N+](=O)[O-])C(C)(C)C` the figure was -0.941.
`O=c1c2c(ncn2C2CCCC2)n(Cc2ccccc2)c(=O)n1CCOc1ccc(Br)cc1`: the z-score is -0.222.
For the molecule `C/C=C/c1ccc(OCCCCN2C(=O)NC(C)(C)C2=O)c(OC)c1`, the z-score was -0.579.
Next, `O=C(Nc1ccc(S(=O)(=O)NCc2ccccc2)cc1)c1ccc(Br)o1`: 0.32; `COc1ccc(CCC(=O)N2CCN(S(=O)(=O)c3ccc4ccccc4c3)CC2)cc1`: -0.528; `CC(=O)C1=C(O)C(=O)N(Cc2cccnc2)C1c1ccc(Cl)cc1Cl` (configuration not stated): -0.364.
`CC(O)CNCc1ccc(-c2ccccc2)cc1` (configuration not stated) showed a z-score of 0.106.
Molecule `Cc1onc(-c2c(Cl)cccc2Cl)c1C(=O)NCc1ccco1` registered a z-score of 0.0309.
Next, `Cc1ccccc1Cn1nc(C)c(NC(=O)c2nc3n(n2)C(C(F)F)CC(C)N3)c1C` (configuration not stated): -0.0871; `O=C1c2ccccc2C(=O)N1n1c(=O)[nH]c2ccccc2c1=O`: 0.165.
With `O=C(CN1C(=O)CSC1=O)Nc1ccc(N2CCOCC2)cc1`, the z-score is -0.877.
Next, `CCOC(=O)N1CCN(c2nnnn2-c2ccccc2)CC1`: -0.14.
Regarding `CCOC(=O)c1c(-c2ccccc2)csc1NC(=O)c1nn(CC)cc1Br`, the z-score is -0.101.
Next, `CCC(C)N(C(=O)COC(=O)c1[nH]c(C)c(C(C)=O)c1C)C1CCS(=O)(=O)C1` (configuration not stated): 0.473.
Next, `NS(=O)(=O)c1ccc(CCNC(=O)c2ccccc2F)cc1`: 0.657; `O=C(CCCn1c(=O)[nH]c2ccsc2c1=O)N1CCN(c2ccccn2)CC1`: 0.703; `Cc1ccc(/C=N/NC(=O)c2cc3c(ccc4ccccc43)o2)cc1[N+](=O)[O-]`: -0.185.
With `Cc1c(C(=O)Nc2ccc3c4c(cccc24)CC3)cccc1[N+](=O)[O-]` the figure was -0.136; with `Cn1ccnc1SCC(=O)NC1CCCCC1`, 1.1.
`Cc1ccc(C(=O)Nc2ccc(C(=O)N/N=C/c3c[nH]c4ccccc34)cc2)cc1`: the z-score came to 0.219.
Next, `Cc1nc2c(-c3ccc(F)cc3)c(C)nn2c(C)c1CCC(=O)NCc1ccco1`: -1.1; `Cc1cccc(-n2ncc3c(NCCCO)ncnc32)c1`: 0.607; `C/C(=N\O)C1(C)N(O)C(C)(C)C(c2ccco2)=[N+]1[O-]` (configuration not stated): -0.295.
With `Cn1c(CSc2nnc(SCc3ccccc3)s2)nc2ccccc21` the figure was 0.343; with `Fc1ccc(NC(=S)NC2CCCCC2)c(F)c1F`, -0.0971.
Next, `COc1ccccc1NC(=S)N(Cc1ccco1)Cc1cc2cc(C)cc(C)c2[nH]c1=O`: -0.117.
Turning to `CCOC(=O)/C(=C\C=C1/Sc2cc(OCC)c(OCC)cc2N1CC)C(C)=O`, the z-score was -0.787.
Next, `CC(O)(CS(=O)(=O)Cc1ccc(Cl)cc1)C(=O)Nc1cccc(C(F)(F)F)c1` (configuration not stated): -0.155; `CC(=O)Nc1nnc(-c2ccccn2)o1`: -0.00401; `COc1ccc(S(=O)(=O)N2CCN(c3ccccc3OC)CC2)cc1OC`: -0.112.
With `CCCC1c2ccc(C)n2CCN1C(=O)Nc1ccc(F)cc1` (configuration not stated) the figure was -0.175.
Next, `Clc1ccc(Cl)c(Oc2ccc(Oc3nc(Cl)ccc3Cl)cc2)n1`: -0.176; `Cc1[nH]c2ccc(-c3n[nH]c(=S)n3-c3ccccc3)cc2c1C`: -0.523; `CCCCOc1ccccc1C1C(C(=O)OC)=C(C)N(C)C(C)=C1C(=O)OC`: active: -4.64.
`COC(=O)c1ccccc1NC(=O)C1CCN(C(=O)c2ccc(OC)cc2)CC1`: the z-score is -0.394.
`Cc1cc(C(F)F)n2nc(C(=O)Nc3ccccc3F)nc2n1` came in with a z-score of 1.37.
Next, `COc1ccccc1CNS(=O)(=O)c1ccc(NC(C)=O)cc1`: -0.177.
Take `COc1ccccc1NNC(=O)C(O)(c1ccccc1OC)c1ccccc1OC`: the z-score is 0.0746.
Next, `Cc1cccc(N2CCN(C(=O)Cc3ccc(-n4c(=O)[nH]c5ccsc5c4=O)cc3)CC2)c1C`: -0.128; `O=S(=O)(c1ccc(Cl)cc1)N1CCC(N2CCCCCC2)CC1`: 0.613; `CCOC(=O)c1c(-c2ccccc2)csc1NC(=O)c1ccc(S(=O)(=O)N2CC(C)OC(C)C2)cc1` (configuration not stated): -1.62.
Regarding `COc1ccc(OCC(=O)NNC(=O)c2ccc(-c3ccccc3)cc2)cc1`, the z-score stood at 0.411.
For the molecule `Cc1cc(-c2ccccc2)nc(SCc2ccc(C(=O)O)o2)n1`, the z-score was -0.597.
Next, `COc1ccc2nc(Nc3nc(C)c(CCC(C)C)c(=O)[nH]3)nc(C)c2c1`: -0.996; `CC1(C)CC(C(CC(=O)O)c2ccccc2)CCO1` (configuration not stated): 0.185.
With `CC(C)Cc1nnc(NC(=O)CCC(=O)N2CCN(S(=O)(=O)c3ccccc3)CC2)s1`, the z-score is -0.555.
Next, `COC(=O)CN1C(=O)CC(C)(C)S(=O)c2ccccc21` (configuration not stated): -0.197.
With `CC1CC(C)CN(S(=O)(=O)c2ccc(C(=O)NCc3ccc4c(c3)OCO4)cc2)C1` (configuration not stated) the figure was -0.0539; with `CC(C)Cc1cc(C(=O)Nc2sc3c(c2C#N)CCC3)no1`, 1.32.
Take `CCc1ccc(C(=O)NC(CC(C)C)C(=O)O)cc1` (configuration not stated): the z-score was -0.493.
As for `COc1ccc(Br)cc1CN1CCCCCCC1`, the z-score stood at 0.169.
Next, `CN(C)c1cccc(NC2=CC(=[N+]3CCOCC3)CC(C)(C)C2)c1`: 0.942.
On to `O=C(C1CCCCC1)N1CCCC(c2nc3c(nnn3Cc3ccccc3)c(=O)[nH]2)C1` (configuration not stated), for which the z-score came to 2.1.
Consider `COc1ccc(C2C(C(N)=O)=C(C)Nc3nc(-c4cccc(Cl)c4)nn32)cc1OC` (configuration not stated), for which the z-score was active: 4.01.
On to `O=C(c1cccc(NS(=O)(=O)c2ccc(F)c(F)c2)c1)N1CCN(C(c2ccccc2)c2ccccc2)CC1`, for which the z-score was -0.189.
With `Cc1ccc(-n2nc3c(Cl)nnc(C)c3c2C)cc1`, the z-score is 0.701.
With `C=CCNC(=O)C(=O)NCCOc1ccccc1Cl` the figure was -0.268; with `Cc1cc([N+](=O)[O-])nn1Cc1c(F)c(F)c(F)c(F)c1F`, -0.232; with `COc1nc(Nc2cccc(C)c2)nc(N2CCCCC2)n1`, -0.961.
For the molecule `COC(=O)c1cc2nc(-c3ccccc3)cc(C)n2n1`, the z-score was found to be 0.0407.
`CCOC(=O)C1C(=O)C=C(c2ccc(C)cc2)CC1c1ccco1` (configuration not stated): the z-score is -0.0925.
With `Cc1ccc(C)c(N2CCN(C(c3ccc(N(C)C)cc3)c3nnnn3C(C)(C)C)CC2)c1` (configuration not stated) the figure was -0.156; with `CCS(=O)(=O)Nc1cccc(C(=O)CC2(O)C(=O)Nc3ccccc32)c1` (configuration not stated), -0.0365.
As for `Cc1cc(C)n(CC(=O)N/N=C/c2ccc3c(c2)OCO3)n1`, the z-score was -0.0715.
Regarding `COc1ccc(N=c2cc(-c3ccc(O)cc3)oc3ccccc23)cc1`, the z-score was -0.0858.
Next, `CCO/C(=C/c1sc2ccc(OC)cc2[n+]1CCCS(=O)(=O)[O-])CC`: 0.262.
Take `O=C(/C=C/c1ccc(OCCCF)cc1)NCc1cccc(Cl)c1`: the z-score was -0.208.
Next, `Cc1cc(C)n2nc(SCC(=O)N(C)c3ccccc3)nc2n1`: -0.461; `CSc1cccc(NC(=O)Nc2ccc(Cl)cc2)c1`: -0.269.
Turning to `CC1CCCCN1S(=O)(=O)c1ccc2c(c1)CCN2C(=O)C1CCC1` (configuration not stated), the z-score was -0.121.
Next, `COc1ccc(C(=O)/C=C/Nc2c(C)n(C)n(-c3ccccc3)c2=O)cc1OC`: -0.0686; `CCOC(=O)c1[nH]c2ccc(OC)cc2c1NC(=O)CN1CCc2ccccc2C1`: -0.535.
With `CCOC(=O)c1ccc(CNCc2ccccc2)cc1` the figure was -0.07; with `CSc1nc2ccc(NC(=O)C3CCCO3)cc2s1` (configuration not stated), 0.644; with `CCOC(=O)CNc1nc(C#N)nc(N2CCOCC2)n1`, -1.08.
Next, `CCN(CC)c1ccc(/C=C2/C(=O)c3ccc(C(=O)O)cc3C2=O)cc1`: -0.59; `O=C(Nc1nccs1)C1CCCN(S(=O)(=O)c2cccc3cccnc23)C1` (configuration not stated): 1.94.
`COC(=O)c1c(NS(=O)(=O)c2ccc3ccccc3c2)sc2c1CCCC2`: the z-score worked out at 0.384.
As to `COc1ccccc1N1CCN(S(=O)(=O)c2cnc[nH]2)CC1`, the z-score is -0.154.
Next, `Cc1cccc(C(=O)NCCN2CCOCC2)c1[N+](=O)[O-]`: -0.153.
